Laboratory results from patent US20190071513A1 (APTEVO RESEARCH AND DEVELOPMENT, published 2019).

T1: human CD123 on the surface of CD123(+) cell lines (human, UniProt P26951 19-378)
T1 sequence (looked up): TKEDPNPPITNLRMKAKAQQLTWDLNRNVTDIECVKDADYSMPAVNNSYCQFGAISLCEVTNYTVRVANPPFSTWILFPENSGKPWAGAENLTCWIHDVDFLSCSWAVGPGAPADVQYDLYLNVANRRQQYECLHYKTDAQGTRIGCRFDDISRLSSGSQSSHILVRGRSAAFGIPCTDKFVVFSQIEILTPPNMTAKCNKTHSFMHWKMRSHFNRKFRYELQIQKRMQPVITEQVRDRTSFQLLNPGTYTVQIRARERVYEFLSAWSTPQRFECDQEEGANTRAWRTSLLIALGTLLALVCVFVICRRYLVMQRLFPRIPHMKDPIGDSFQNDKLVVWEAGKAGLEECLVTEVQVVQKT

T2: Full-length cynomolgus CD123, isoform 1 (TRI114), on transfected cells (cynomolgus monkey)
T2 construct: also called cyno CD123; CHO cells stably expressing cynomolgus CD123 protein
T2 chain: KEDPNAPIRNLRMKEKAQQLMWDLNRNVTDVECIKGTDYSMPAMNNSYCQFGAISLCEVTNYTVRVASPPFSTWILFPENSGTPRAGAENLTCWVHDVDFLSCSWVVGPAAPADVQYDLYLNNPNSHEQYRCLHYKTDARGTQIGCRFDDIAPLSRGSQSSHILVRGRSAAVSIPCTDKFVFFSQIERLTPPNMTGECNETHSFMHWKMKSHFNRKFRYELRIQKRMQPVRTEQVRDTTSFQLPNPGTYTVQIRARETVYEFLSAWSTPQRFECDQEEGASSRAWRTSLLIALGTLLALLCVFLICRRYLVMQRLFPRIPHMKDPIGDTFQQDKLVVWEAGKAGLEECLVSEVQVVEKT

B1: TRI130 (bispecific antibody)
chain: [about 100 residues skipped]TFGGGTKVEIKGGGGSGGGGSGGGGSGGGGSEVQLLESGGGLVQPGGSLRLSCAASGFTFSSYGMSWVRQAPGKGLEGVSAISGSGGSTYYADSVKGRFTISRDNSKNTLYLQMNSLRAEDTAVYYCAKEKLRYFDWLSDAFDIWGQGTMVTVSSSEPKSSDKTHTCPPCPAPEAAGAPSVFLFPPKPKDTLMISRTPEVTCVVVDVSHEDPEVKFNWYVDGVEVHNAKTKPREEQYNSTYRVVSVLTVLHQDWLNGKEYKCAVSNKALPAPIEKTISKAKGQPREPQVYTLPPSRDELTKNQVSLTCLVKGFYPSDIAVEWESNGQPENNYKTTPPVLDSDGSFFLYSKLTVDKSRWQQGNVFSCSVMHEALHNHYTQKSLSLSPGSGGGGSGGGGSGGGGSPSQVQLVQSGPEVKKPGSSVKVSCKASGYTFSRSTMHWVRQAPGQGLEWIGYINPSSAYTNYNQKFKDRVTITADKSTSTAYMELSSLRSEDTAVYYCARPQVHYDYNGFPYWGQGTLVTVSSGGGGSGGGGSGGGGSGGGGSDIQMTQSPSTLSASVGDRVTMTCSASSSVSYMNWYQQKPGKAPKRWIYDSSKLASGVPSRFSGSGSGTDYTLTISSLQPDDFATYYCQQWSRNPPTFGGGTKVEIKRS
notes: scFv-Fc-scFv, anti-CD123 × anti-CD3ε; dimer; also called OMT1 VLVH × TSC456 scFv-Fc-scFv; TRI1130
B2: TRI185 (bispecific antibody)
chain: [about 100 residues skipped]TFGGGTKVEIKGGGGSGGGGSGGGGSGGGGSEVQLLESGGGLVQPGGSLRLSCAASGFTFSSYGMSWVRQAPGKGLEGVSAISGSGGSTYYADSVKGRFTISRDNSKNTLYLQMNSLRAEDTAVYYCAKEKLRYFDWLSDAFDIWGQGTMVTVSSSEPKSSDKTHTCPPCPAPEAAGAPSVFLFPPKPKDTLMISRTPEVTCVVVDVSHEDPEVKFNWYVDGVEVHNAKTKPREEQYNSTYRVVSVLTVLHQDWLNGKEYKCAVSNKALPAPIEKTISKAKGQPREPQVYTLPPSRDELTKNQVSLTCLVKGFYPSDIAVEWESNGQPENNYKTTPPVLDSDGSFFLYSKLTVDKSRWQQGNVFSCSVMHEALHNHYTQKSLSLSPGSGGGGSGGGGSGGGGSPSEVQLVESGGGLVQPGGSLRLSCAASGFTFSTYAMNWVRQAPGKGLEWVGRIRSKYNNYATYYADSVKDRFTISRDDSKNSLYLQMNSLKTEDTAVYYCVRHGNFGNSYVSWFAYWGQGTLVTVSSGGGGSGGGGSGGGGSGGGGSQAVVTQEPSLTVSPGGTVTLTCRSSTGAVTTSNYANWVQQKPGQAPRGLIGGTNKRAPWTPARFSGSLLGGKAALTITGAQAEDEADYYCALWYSNLWVFGGGTKLTVLRS
B3: DRA240 (Fc fusion)
chain: QVQLVESGGGVVQPGRSLRLSCKASGYTFTRSTMHWVRQAPGQGLEWIGYINPSSAYTNYNQKFKDRFTISADKSKSTAFLQMDSLRPEDTGVYFCARPQVHYDYNGFPYWGQGTPVTVSSGGGGSGGGGSGGGGSAQDIQMTQSPSSLSASVGDRVTMTCSASSSVSYMNWYQQKPGKAPKRWIYDSSKLASGVPARFSGSGSGTDYTLTISSLQPEDFATYYCQQWSRNPPTFGGGTKLQITSSS[human IgG1 Fc with changes skipped]
notes: anti-CD3 scFv (CRIS-7 derived, humanized) at the N-terminus of Fc; also called CRIS-7 scFv-Fc; DRA040

Legend:
[1] = target: T1, human CD123 on the surface of CD123(+) …; assay: cell-based or functional assay
[2] = target: T1, human CD123 on the surface of CD123(+) …; assay: flow cytometry on CD123(+) Molm-13 cells, PE anti-human IgG Fc secondary antibody, MFI; table under the graph
[3] = target: T2, Full-length cynomolgus CD123, isoform 1 …; assay: flow cytometry on CHO cells stably expressing cynomolgus CD123, PE anti-human IgG Fc secondary antibody, MFI; table under the graph
[4] = target: T3, CD3ε on Jurkat cells and human T-cells (human, UniProt P07766); assay: flow cytometry on CD3ε(+) Jurkat cells, PE anti-human Fc secondary
T3 construct: whole, on cells; on cells CD3ε stands in the TCR/CD3 complex; also called CD3 epsilon; CD3ε(+) Jurkat cell line
T3 sequence (P07766 23-207): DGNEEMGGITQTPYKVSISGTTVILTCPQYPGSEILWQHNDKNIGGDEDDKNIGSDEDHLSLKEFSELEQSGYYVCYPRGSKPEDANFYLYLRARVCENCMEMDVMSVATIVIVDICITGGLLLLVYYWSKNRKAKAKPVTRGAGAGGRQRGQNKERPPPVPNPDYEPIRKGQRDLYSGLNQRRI

Row | EC50 of T-cell activation (CD4+ and CD8+ CD25+ CD69+) with Molm-13 cells, 24 hours [1] | EC50 of T-cell proliferation (CFSE) with Molm-13 cells, 4 days [1] | EC50 [2] | EC50 [3] | EC50 [4] | Binder
1 | < 0.01 nM | 0.012 to 0.021 nM | 4.65 nM | 12.1 nM |  | B1
2 | < 0.01 nM | 0.009 to 0.023 nM |  |  |  | B2
3 |  |  |  |  | 0.2 nM | B3
